For 28 compounds, AQP5-HiBiT luminescence results are on record in the supplement of paper PMC8821664.

Counter-ions that a name gives are not always drawn. The list shows a part of the results. Most values come without repeats; read them as rough.
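Note: monoclonal Beas-2B line stably carrying CMV promoter-driven AQP5-HiBiT, 5,000 cells per well in 384-well plates, lytic HiBiT plus LgBiT NanoLuc luminescence, FDA-approved drug library screen.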

In this test the test system is Beas-2B AQP5-HiBiT reporter cells. Put plainly: AQP5-HiBiT luminescence relative to vehicle (ratio to vehicle); higher = higher AQP5-HiBiT protein abundance. The conditions noted are these: 10 µM; 18 h.
Take `Nc1cc(-c2ccncc2)c[nH]c1=O` [Amrinone]: the AQP5-HiBiT luminescence was 1.
In the case of `CC(C)[N+]1(C)[C@@H]2CC[C@H]1C[C@@H](OC(=O)C(CO)c1ccccc1)C2` (stereo partly drawn) [Ipratropium bromide monohydrate] it was 1.04.
For the compound `CCCCCCCCCCCCCCCCCCCCCCO` [Behenic alcohol], the AQP5-HiBiT luminescence came to 0.728.
As for `O=C1c2c(O)ccc(O)c2C(=O)c2c(NCCNCCO)ccc(NCCNCCO)c21` [Mitoxantrone hydrochloride], the figure is 2.68; as for `CN(C)CCc1c[nH]c2ccc(C[C@H]3COC(=O)N3)cc12` [Zolmitriptan], 0.782; as for `O=C1CC2(CCCC2)CC(=O)N1CCCCN1CCN(c2ncccn2)CC1` [Buspirone hydrochloride], 1.4.
On to `CC[C@H]1OC(=O)[C@H](C)[C@@H](O[C@H]2C[C@@](C)(OC)[C@@H](O)[C@H](C)O2)[C@H](C)[C@@H](O[C@@H]2O[C@H](C)C[C@H](N(C)C)[C@H]2O)[C@](C)(O)C[C@@H](C)CN(C)[C@H](C)[C@@H](O)[C@]1(C)O` [Azithromycin dihydrate], for which the AQP5-HiBiT luminescence was determined as 2.32.
`CS(=O)(=O)CCNCc1ccc(-c2ccc3ncnc(Nc4ccc(OCc5cccc(F)c5)c(Cl)c4)c3c2)o1` [Lapatinib]: the AQP5-HiBiT luminescence is 0.895.
Turning to `Cc1ccc([C@@H]2O[C@H](CO)[C@@H](O)[C@H](O)[C@H]2O)cc1Cc1ccc(-c2ccc(F)cc2)s1` [Canagliflozin], the AQP5-HiBiT luminescence amounted to 0.485.
As for `CC[C@]1(O)C[C@H]2CN(CCc3c([nH]c4ccccc34)[C@@](C(=O)OC)(c3cc4c(cc3OC)N(C=O)[C@H]3[C@@](O)(C(=O)OC)[C@H](OC(C)=O)[C@]5(CC)C=CCN6CC[C@]43[C@@H]65)C2)C1` [Vincristine sulfate], the figure is 3.21.
As to `Cc1ccc(S(=O)(=O)NC(=O)NN2CCCCCC2)cc1` [Tolazamide], the AQP5-HiBiT luminescence is 0.465.
As for `COc1cc2c(cc1Cc1cccc(Cl)c1F)c(=O)c(C(=O)O)cn2[C@H](CO)C(C)C` [Elvitegravir(GS-9137, JTK-303)], the figure is 0.615.
In the case of `O=C(NC[C@H]1CN(c2ccc(N3CCOCC3=O)cc2)C(=O)O1)c1ccc(Cl)s1` [Rivaroxaban] it was 0.73; in that of `CCN[C@H]1CN(CCCOC)S(=O)(=O)c2sc(S(N)(=O)=O)cc21` [Brinzolamide], 0.819.
With `O=C1C(O)=C([C@H]2CC[C@H](c3ccc(Cl)cc3)CC2)C(=O)c2ccccc21` [Atovaquone], the AQP5-HiBiT luminescence turned out to be 0.661.
As for `CCCCNc1cc(C(=O)O)cc(S(N)(=O)=O)c1Oc1ccccc1` [Bumetanide], the AQP5-HiBiT luminescence was 0.88.
For the compound `Cc1cccc(C)c1OCC(=O)N[C@@H](Cc1ccccc1)[C@@H](O)C[C@H](Cc1ccccc1)NC(=O)[C@H](C(C)C)N1CCCNC1=O` [Lopinavir], the AQP5-HiBiT luminescence worked out at 0.98.
With `CC(=O)OCC(=O)[C@@]12OC(C)(C)O[C@@H]1C[C@H]1[C@@H]3C[C@H](F)C4=CC(=O)C=C[C@]4(C)[C@@]3(F)[C@@H](O)C[C@@]12C` [Fluocinonide], the AQP5-HiBiT luminescence was 0.953.
In the case of `CC1(C)C[C@@H]1C(=O)N/C(=C\CCCCSC[C@H](N)C(=O)O)C(=O)O` [Cilastatin] it was 0.63; in that of `Cc1cn([C@@H]2C[C@@H](O)[C@H](CO)O2)c(=O)[nH]c1=O` [Telbivudine], 1.08; in that of `CN(C)CCOc1ccc(/C(=C(/CCCl)c2ccccc2)c2ccccc2)cc1` [Toremifene], 1.24.
In the case of `CC[C@@H](CO)NCCN[C@@H](CC)CO` [Ethambutol 2hydrochloride], the AQP5-HiBiT luminescence amounted to 0.828.
As for `C[C@H](CCC(=O)O)[C@H]1CC[C@H]2[C@@H]3[C@H](O)C[C@@H]4C[C@H](O)CC[C@]4(C)[C@H]3C[C@H](O)[C@]12C` [Cholic Acid], the figure is 0.855; as for `CO[C@H]1O[C@@H]2O[C@@]3(C)CC[C@H]4[C@H](C)CC[C@@H]([C@H]1C)[C@@]24OO3` [Artemether], 1.37; as for `CCCCCCCCCCCCCCCCOP(=O)([O-])OCC[N+](C)(C)C` [Miltefosine], 1.03.
In the case of `NCC[C@H](O)C(=O)N[C@@H]1C[C@H](N)[C@@H](O[C@H]2O[C@H](CN)[C@@H](O)[C@H](O)[C@H]2O)[C@H](O)[C@H]1O[C@H]1O[C@H](CO)[C@@H](O)[C@H](N)[C@H]1O` [Amikacin Sulfate Salt], the AQP5-HiBiT luminescence worked out at 0.986.
As for `CN(C)CCCN1c2ccccc2Sc2ccc(Cl)cc21` [Chlorpromazine hydrochloride], the figure is 1.05; as for `CCn1cc(C(=O)O)c(=O)c2cc(F)c(N3CCNCC3)cc21` [Norfloxacin], 1.61.
